Measurements reported in PubChem BioAssay AID1671193 (National Center for Advancing Translational Sciences (NCATS), 2021).
Several values for one entry are separate records, joined by “and”; a condition that tells them apart may be missing. Equal entries are not always repeated. Out of some 150,000 compounds screened, about 180 (0.12%) were called active. Inconclusive results, whose numbers are uncertain, are shown with a selection of clear calls. Calls follow the shape of the dose curve; as a rule, active = well fitted cell-killing curve with a large enough effect; inconclusive = small, poorly fitted or top-dose-only effect, or effect the other way; inactive = flat fitted curve, though single readings scatter. A potency beside an inconclusive call is a rough fit, not a confirmed value.
Potency is read from the fitted curve at half-maximal effect; tags tell the direction and shape of the fitted curve.

Assay: GF-AFC viability counterscreen for inhibitors of alpha-synuclein gene (SNCA) expression; also: nearly all actives have a fitted effect of over 30% in size;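 as to activity change, negative = cytotoxicity: 0% = DMSO-treated cells and -100% = medium-only wells without cells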
Conditions: HEK-293-SNCA-luc viability, GF-AFC fluorescence, 24 h; activity change, negative = cytotoxicity: at 57.1 µM (top of the series) unless noted
Method in brief: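 Cytotoxicity counterscreen: after 24 h compound treatment of genome-edited SNCA-luciferase HEK-293 cells, live-cell protease substrate GF-AFC read by fluorescence after 30 min; activity scaled between DMSO (0%) and medium-only (-100%), curves Hill-fitted.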
In the case of CC(=O)Nc1ccccc1-c1nc2ccccc2n(C(C)C(=O)Nc2cc(Cl)ccc2C)c1=O (stereo unspecified), the Potency is reported as inconclusive: 39.8 µM [cytotoxic, single point]. With COc1ccc(C(=O)N2CCCCCCNC(=O)CC2)cc1 the Potency was inconclusive: 5.01 µM [cytotoxic, full curve, poor fit]. In the case of COc1ccc(C2C=C(c3ccccc3)Nc3nc(NC(=O)c4ccc(C)cc4)nn32)cc1 (stereo unspecified), the Potency is reported as inconclusive: 22.4 µM [rising, partial curve]. For CC(C)CN1C(=O)CO[C@H](c2ccc(NC(=O)c3cccc(C#N)c3)cc2)[C@H]1CO, the “activity change, negative = cytotoxicity” value was inactive: 1.43% [at 87.6 µM]. For Cc1nnnn1CCCN1CCc2onc(-c3ccc(C(F)(F)F)cc3)c2C1, the Potency was inconclusive: 6.31 µM [rising, partial curve, poor fit]. With COc1cccc(Nc2ncc3nc(-c4ccccc4)c(=O)n(C4CC4)c3n2)c1 the Potency was inconclusive: 14.1 µM [rising, partial curve, poor fit]. With CN(C(=O)Cn1c(=O)n(CCCS(=O)(=O)C2CCCCC2)c(=O)c2ccccc21)c1ccccc1 the Potency was inconclusive: 1.78 µM [cytotoxic, full curve, poor fit]. In the case of Cc1ccsc1CN1CC(Oc2ccccc2C(=O)NCc2ccccc2)C1, the Potency is reported as inconclusive: 39.8 µM [cytotoxic, single point]. With COc1ccccc1CCNC(=O)C1CC(c2ccccc2)CN(C(=O)C2CC2)C1 (stereo unspecified) the Potency was inconclusive: 39.8 µM [cytotoxic, single point]. In the case of CCOC(=O)C1(Cc2ccccc2C)CCCNC1 (stereo unspecified), the “activity change, negative = cytotoxicity” value is reported as inactive: 0.584%. For Cc1cc2nc(NCCCO)n(CC(=O)c3cc(C(C)(C)C)c(O)c(C(C)(C)C)c3)c2cc1C, the Potency was inconclusive: 16.8 µM [cytotoxic, partial curve, poor fit]. With Cc1cccc2nc(-c3cccnc3)c(Nc3ccc(C(C)C)cc3)n12 the Potency was inconclusive: 20 µM [cytotoxic, partial curve, poor fit]. In the case of Cc1cc(C)cc(NC(=O)CSc2nccn2-c2ccccc2)c1, the “activity change, negative = cytotoxicity” value is reported as inactive: 7.03%. In the case of CCn1nccc1C(=O)NCCC1CCN(C(=O)Nc2ccccc2F)CC1, the “activity change, negative = cytotoxicity” value is reported as inactive: 4.73%. With O=C(c1ccc(Cl)cc1)N1CCC(n2cc(-c3nc(-c4ccccc4)no3)nn2)C1 (stereo unspecified) the Potency was inconclusive: 10 µM [cytotoxic, partial curve, poor fit]. In the case of CCCc1noc(-c2cccn3c(CNC(=O)CC4CCCCC4)nnc23)n1, the “activity change, negative = cytotoxicity” value is reported as inactive: 2.25%. In the case of Cc1ccc(NCc2cccn2-c2nnc(N3CCC(C(=O)NCc4ccc(OC(C)C)cc4)CC3)s2)cc1, the “activity change, negative = cytotoxicity” value is reported as inactive: -8.44%. With Cc1cccc(OCC(=O)N2[C@@H]3CC[C@H]2CC(NC(=O)c2ccncc2)C3)c1 (stereo partly specified) the Potency was inconclusive: 31.6 µM [cytotoxic, single point]. In the case of COc1ccc(Nc2c(-c3cc(Br)ccc3O)nc3ncccn23)cc1OC, the Potency is reported as inconclusive: 20 µM [cytotoxic, partial curve, poor fit]. With Cc1ccc(S(=O)(=O)c2cn(C)c3cc(N4CCN(C)CC4)c(F)cc3c2=O)cc1 the Potency was inconclusive: 1.41 µM [cytotoxic, full curve, poor fit]. With CCN1c2cc(C(=O)NCCOc3ccccc3OC)ccc2C(=O)N2CCCCCC21 (stereo unspecified) the Potency was inconclusive: 7.08 µM [rising, single point]. For Cc1ccc(C(=O)Nc2ccc(CN3CCN(C)CC3)c(C(F)(F)F)c2)cc1C#Cc1cnc2cccnn12, the Potency was inconclusive: 3.41 µM [cytotoxic, full curve, poor fit] and active: 29.9 µM. For COc1ccccc1CNC(=O)CN1C(=O)CSc2ccc(S(=O)(=O)N3CCCC3)cc21, the Potency was inconclusive: 17.8 µM [cytotoxic, single point]. For Cn1cccc1C(=O)NCc1nnc2ccc(-c3ccccc3)nn12, the “activity change, negative = cytotoxicity” value was inactive: 3.15%. For CC(C)c1ccc(NC(=O)C(c2ccccc2)N(C)C(=O)Cc2c[nH]c3ccccc23)cc1 (stereo unspecified), the Potency was inconclusive: 26.7 µM [cytotoxic, partial curve, poor fit]. With COc1ccc(S(=O)(=O)N(CC(=O)NCc2ccccc2OC)c2ccc(C)cc2)cc1 the Potency was inconclusive: 5.01 µM [rising, single point]. In the case of COc1ccc(N2C(=O)CSC23CCN(C(=O)C2CCCC2)CC3)cc1, the Potency is reported as inconclusive: 12.6 µM [cytotoxic, partial curve, poor fit]. In the case of Cc1cccc(C(=O)N2CCC3(CC2)OCC(C(=O)N2CCOCC2)N3C(=O)c2ccc(F)cc2)c1 (stereo unspecified), the “activity change, negative = cytotoxicity” value is reported as inactive: 1.16%. For COCCNC(=O)CCC1CCN(C(=O)c2ccccc2Cl)CC1, the “activity change, negative = cytotoxicity” value was inactive: -8.76%. With COc1cccc(CN2CC3(CCN(C)C3)c3cc(C(=O)NC4CCCCC4)ccc32)c1 (stereo unspecified) the “activity change, negative = cytotoxicity” value was inactive: -6.96% [at 87.6 µM]. With COc1ccc(CN2CCC[C@H]2c2nc(-c3ccc(N4CCC(C(N)=O)CC4)nc3)no2)c(O)c1 the “activity change, negative = cytotoxicity” value was inactive: 4.24%. In the case of Cc1ccc(-c2nc(C(=O)NCc3cccc(Br)c3)no2)cc1, the Potency is reported as inconclusive: 39.8 µM [rising, single point]. With COc1ccc(-c2[nH]ncc2CN2CCn3nnc(CCC(=O)N4CCCC4)c3C2)cc1 the “activity change, negative = cytotoxicity” value was inactive: 5.46%. With CCc1c(C)c2ccc3c(c2oc1=O)CN(Cc1ccccc1)CO3 the Potency was inconclusive: 39.8 µM [rising, single point]. In the case of COc1ccccc1-c1cc(N2CCOCC2=O)c2cncn2c1, the “activity change, negative = cytotoxicity” value is reported as inactive: -13.5% [at 87.6 µM]. In the case of COc1ccc(NC(=O)N2C[C@@H]3C[C@H](C2)c2ccc(NC(=O)C4CCCCC4)c(=O)n2C3)cc1, the Potency is reported as inconclusive: 11.2 µM [cytotoxic, partial curve, poor fit]. With CNC(=O)[C@@H]1CN(C(=O)c2ccc3ccccc3n2)C[C@H]1COC the Potency was inconclusive: 39.8 µM [cytotoxic, single point]. In the case of COc1cccc(-c2nc3cnccn3c2NCCC(=O)N2CCCC(C)C2)c1 (stereo unspecified), the Potency is reported as inconclusive: 39.8 µM [rising, single point]. For Cc1nn(-c2ccc(C(C)C)cc2)c(C)c1[C@@H]1C=C[C@@H](NC(=O)NC(C)C)C1, the Potency was inconclusive: 39.8 µM [cytotoxic, partial curve, poor fit]. In the case of COCCN1C(=O)c2ccccc2C(C(=O)NCc2ccc(Cl)cc2)C12CCCC2 (stereo unspecified), the “activity change, negative = cytotoxicity” value is reported as inactive: -2.68%. With CC(Oc1cccc(Cl)c1)C(=O)N1CCN(c2cc(-c3cccs3)[nH]n2)CC1 (stereo unspecified) the “activity change, negative = cytotoxicity” value was inactive: -15.6%.
